# Results: PubChem BioAssay (NCATS)
# Values joined by “and” are separate entries in the source; they are usually repeats but may differ in a detail not shown here. Equal values may be shown once. The list shows a part of the results. These are further read-outs of the screen, such as a control signal, another cell line or another target. No call is given for them. For part of these data: Most of these compounds were active or inconclusive in the main read-out, so they are no random draw. The note in brackets gives the kind of curve behind each potency; many fits are weak.
# How the values were obtained:
# [1] = biological target: Catechol O-methyltransferase (Homo sapiens) (UniProt P21964); assay: Confirmatory Screen for Target Class Profiling of Small Molecule Inhibitors of Methyltransferases (AID 1745852); conditions: MTase-Glo luminescence, SAH detection, recombinant enzyme; measured here: COMT inhibition potency;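 further: inhibitor potency for blocking SAH production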
# [2] = biological target: Nicotinamide N-methyltransferase (Homo sapiens) (UniProt P40261); assay: as above; conditions: MTase-Glo luminescence, SAH detection, recombinant enzyme; measured here: NNMT inhibition potency
# [3] = biological target: Phenylethanolamine N-methyltransferase (Homo sapiens) (UniProt P11086); assay: as above; conditions: MTase-Glo luminescence, SAH detection, recombinant enzyme; measured here: PNMT inhibition potency
# [4] = qHTS drug screen for cell cycle checkpoint inhibitors in PARPi-resistant BRCA-mutant ovarian cancer cell lines. (AID 1963452); conditions: PEO1/OlaR viability, CellTiter-Glo luminescence, 96 h
# In short: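 PEO1, PEO4 and PEO1/OlaR ovarian cancer cells, 600 per well, exposed 96 h at 37C to a dilution series. Viability read by CellTiter-Glo luminescence, normalized to DMSO and empty wells; activity summarized as Z-AUC.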
# [5] = qHTS for identification of novel therapeutic agents for treatment of microphthalmiaassociated transcription factor (MiT) renal cell carcinoma (RCC) (AID 1963991); conditions: CellTiter-Glo, 48 h; for z-score: stronger effect = lower value;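 on z-score: curves scaled with 100% = DMSO viability and 0% = empty wells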
# In short: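 UOK109/UOK124/UOK145 (TFE3 fusions, three partners); 500 cells/well; MIPE v4.0, 1912 cpds, 11 conc.; 48 h, 37 C; CellTiter-Glo, 15 min RT; lum. Norm.: DMSO 100%, empty 0%.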
# [6] = biological target: Histamine N-methyltransferase (Homo sapiens) (UniProt P50135); assay: Confirmatory Screen for Target Class Profiling of Small Molecule Inhibitors of Methyltransferases (AID 1745852); conditions: MTase-Glo luminescence, SAH detection, recombinant enzyme; measured here: HNMT inhibition potency;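 further: inhibitor potency for blocking SAH production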
# [7] = NCATS anti-infectives library activity on the primary C. elegans qHTS viability assay (AID 1745855); conditions: C. elegans worm area imaging, day 7, measured here: worm number
# In short: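 GFP read-out by 488 nm laser cytometry at day 0, 3 and 7, gated on object perimeter, area and peak intensity, scored viability of PE254-GFP-FLuc worms exposed to compound in S medium with bacterial capsules at 21 °C.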
# [8] = qHTS Validation Assay to Find Inhibitors of Chronic Active B-Cell Receptor Signaling (AID 485345); conditions: ABC-DLBCL cells, chronic BCR signaling reporter; measured here: CBR control luciferase (viability counter)
# In short: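 Read-out: ratio of filter-corrected green (IkappaBalpha fusion) to red (native) luciferase signal in doxycycline-induced TMD8 cells after 4 h at 37C. Titration spanned 46 uM–3 nM; Data were normalised to basal cells and 10 uM MG-132 wells.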
# [9] = measured here: PEO1 parental viability
# [10] = TFE3-RCC UOK109 viability, measured here: UOK109 Z-AUC
# [11] = TFE3-RCC viability, measured here: UOK124 Z-AUC
# [12] = TFE3-RCC viability, measured here: UOK124 cell viability
# [13] = TFE3-RCC viability, measured here: UOK145 Z-AUC
# [14] = TFE3-RCC viability, measured here: UOK145 cell viability
# Tags describe the fitted curve by direction and shape.
# Sequence of UniProt P11086 (P11086 whole entry, looked up): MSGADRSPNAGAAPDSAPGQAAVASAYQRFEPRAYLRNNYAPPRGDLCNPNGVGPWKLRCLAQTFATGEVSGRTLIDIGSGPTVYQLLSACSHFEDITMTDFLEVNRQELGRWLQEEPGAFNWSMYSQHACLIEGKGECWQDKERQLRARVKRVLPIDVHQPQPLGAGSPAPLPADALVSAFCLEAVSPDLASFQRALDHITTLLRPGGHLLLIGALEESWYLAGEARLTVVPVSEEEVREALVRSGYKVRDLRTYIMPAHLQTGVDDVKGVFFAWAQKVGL
# Sequence of UniProt P40261 (P40261 whole entry, looked up): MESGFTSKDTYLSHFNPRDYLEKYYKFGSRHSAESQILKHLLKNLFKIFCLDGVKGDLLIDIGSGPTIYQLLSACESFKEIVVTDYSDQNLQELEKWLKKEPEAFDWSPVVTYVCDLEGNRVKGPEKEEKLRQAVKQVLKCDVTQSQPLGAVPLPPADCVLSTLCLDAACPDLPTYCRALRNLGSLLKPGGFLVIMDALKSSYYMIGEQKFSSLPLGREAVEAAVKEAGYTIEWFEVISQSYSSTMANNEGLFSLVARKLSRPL
# Sequence of UniProt P21964 (P21964 whole entry, looked up): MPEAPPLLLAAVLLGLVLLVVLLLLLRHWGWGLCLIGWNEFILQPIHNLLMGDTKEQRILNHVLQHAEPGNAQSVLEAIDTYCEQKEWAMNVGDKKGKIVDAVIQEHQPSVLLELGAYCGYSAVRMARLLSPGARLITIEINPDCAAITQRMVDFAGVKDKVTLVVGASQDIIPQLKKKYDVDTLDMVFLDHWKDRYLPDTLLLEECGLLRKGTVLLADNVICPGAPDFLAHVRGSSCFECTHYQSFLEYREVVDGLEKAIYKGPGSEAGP
# Sequence of UniProt P50135 (P50135 whole entry, looked up): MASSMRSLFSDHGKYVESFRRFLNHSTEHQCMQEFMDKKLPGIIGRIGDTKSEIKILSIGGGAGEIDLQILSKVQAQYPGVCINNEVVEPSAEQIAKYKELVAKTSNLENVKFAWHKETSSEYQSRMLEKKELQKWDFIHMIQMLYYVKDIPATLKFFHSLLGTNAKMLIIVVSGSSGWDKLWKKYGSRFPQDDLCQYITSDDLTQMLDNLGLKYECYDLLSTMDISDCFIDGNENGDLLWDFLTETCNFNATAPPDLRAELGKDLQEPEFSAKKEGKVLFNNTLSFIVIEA
compound,measurement,setting,value
CCCSc1nc(N[C@@H]2C[C@H]2c2ccc(F)c(F)c2)c2nnn([C@@H]3C[C@H](OCCO)[C@@H](O)[C@H]3O)c2n1,IC50,[1],"30.4 µM [falling, partial curve]"
same,IC50,[2],"24.1 µM [falling, partial curve]"
same,IC50,[3],"34.1 µM [falling, single point]"
CC1CC(=O)C2=C(O1)OC1(C)CCC3C(C)(C)C=CC(=O)C3(C)C1C2 (configuration not stated),IC50,[1],"14.9 µM [falling, partial curve]"
same,IC50,[2],"0.0942 µM [falling, full curve]"
CN(C)CCCNC(=O)c1ccc(-c2cc(O)c3ncccc3c2)cc1,IC50,[1],"482 nM [falling, full curve] and 1.72 µM [falling, full curve]"
same,AC50,[4]; [9],"12.3 µM [falling, partial curve, poor fit]"
same,AC50,[4]; measured here: PEO4 viability,"17.4 µM [falling, partial curve, poor fit]"
same,z-score,[5]; [10],0.583
same,z-score,[5]; [11],0.79
same,AC50,[5]; [12],"10.5 µM [falling, full curve]"
same,z-score,[5]; [13],0.545
same,AC50,[5]; [14],"18.7 µM [falling, partial curve]"
CC(C)c1c2cc(-c3ccnc(NC4CCC(NC5CCOCC5)CC4)n3)ccc2nn1C (configuration not stated),IC50,[1],"30.4 µM [falling, partial curve, poor fit]"
same,IC50,[6],"42.9 µM [falling, single point]"
same,IC50,[3],"30.4 µM [falling, partial curve, poor fit]"
same,AC50,[4]; [9],"0.219 µM [falling, full curve]"
same,AC50,[4]; measured here: PEO4 viability,"0.174 µM [falling, full curve]"
COc1c(O)cc2c(c1O)[C@@H]1O[C@H](CO)[C@@H](O)[C@H](O)[C@H]1OC2=O,IC50,[1],"1.49 µM [falling, full curve]"
same,AC50,[7],"1.45 µM [falling, partial curve, poor fit]"
Nc1[nH]nc2nnc(-c3c(-c4ccccc4)nn4ccccc34)cc12,IC50,[1],"17.1 µM [falling, partial curve]"
same,IC50,[6],"15.2 µM [falling, partial curve]"
same,IC50,[2],"21.5 µM [falling, partial curve]"
same,IC50,[3],"19.2 µM [falling, partial curve]"
same,z-score,[5]; [10],-0.48
same,z-score,[5]; [11],0.525
same,AC50,[5]; [12],"14.8 µM [falling, partial curve]"
same,z-score,[5]; [13],-0.678
same,AC50,[5]; [14],"16.6 µM [falling, partial curve]"
Cc1nc([C@](C)(O)CO)sc1-c1cnc(N)c(O[C@H](C)c2cc(F)ccc2-n2nccn2)c1,IC50,[1],"19.2 µM [falling, partial curve]"
same,AC50,[4]; measured here: PEO4 viability,"1.38 µM [falling, partial curve, poor fit]"
Cc1ccc(C(N)=O)cc1Nc1nccc(-c2cn(C(C)C)c3cnccc23)n1,IC50,[1],"24.1 µM [falling, partial curve]"
same,IC50,[6],"24.1 µM [falling, partial curve]"
same,IC50,[2],"24.1 µM [falling, partial curve]"
same,IC50,[3],"24.1 µM [falling, partial curve]"
same,AC50,[4]; [9],"4.9 µM [falling, full curve]"
same,AC50,[4]; measured here: PEO4 viability,"4.9 µM [falling, partial curve]"
same,z-score,[5]; [10],-0.317
same,z-score,[5]; [11],0.468
same,AC50,[5]; [12],"9.35 µM [falling, partial curve]"
same,z-score,[5]; [13],0.228
same,AC50,[5]; [14],"9.35 µM [falling, full curve]"
c1ccc(-c2oc3ncnc(NC[C@@H]4CCCO4)c3c2-c2ccccc2)cc1,IC50,[1],"24.1 µM [falling, partial curve]"
same,IC50,[6],"24.1 µM [falling, partial curve]"
same,IC50,[2],"24.1 µM [falling, partial curve]"
same,IC50,[3],"24.1 µM [falling, partial curve]"
same,z-score,[5]; [10],-0.101
same,z-score,[5]; [11],0.179
same,AC50,[5]; [12],"23.5 µM [falling, single point]"
same,z-score,[5]; [13],0.334
same,AC50,[5]; [14],"20.9 µM [falling, partial curve]"
CC[C@H](C)C(=O)O[C@H]1CCC=C2C=C[C@H](C)[C@H](CC[C@@H]3C[C@@H](O)CC(=O)O3)[C@H]21,AC50,[8],"14.6 µM [falling, single point]"
same,IC50,[1],"21.7 µM [falling, partial curve]"
same,AC50,[4]; [9],"12.3 µM [falling, partial curve]"
same,AC50,[4]; measured here: PEO4 viability,"17.4 µM [falling, single point]"
CCCCCNC(=O)c1sc(=S)n2c1[nH]c(=O)c1ccc(C(=O)OC)cc12,IC50,[1],"27.1 µM [falling, partial curve]"
same,IC50,[2],"24.1 µM [falling, partial curve]"
